Assay results: the supplement of paper PMC11166567
This is one part of the list.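 The calls were made as follows: active = permutation test q below 0.05 after Benjamini-Hochberg correction; inactive = q of 0.05 or more.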
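Also: cosine similarity of well-level aggregated Cell Painting profiles ranks each compound's replicate wells against DMSO wells, four replicate plates, significance from 100,000 rank shuffles.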

The molecules below were run on U2OS (assay: mean average precision of replicate retrieval against DMSO controls (Cell Painting phenotypic activity) (fraction (0-1)); higher = stronger, more reproducible morphological phenotype distinct from DMSO; extreme values may be limits of the assay). Settings: 48 h; 5 µM.
For `Cc1c(C)c2c(c(C)c1O)CC[C@@](C)(CCC[C@H](C)CCC[C@H](C)CCCC(C)C)O2`, the mean average precision was inactive: 0.184.
For `Cc1ccc([N+](=O)[O-])cc1S(=O)(=O)N(C)C`, the mean average precision was inactive: 0.284.
With `Cc1nn(C)c2nc(NNC(=O)Nc3cc(Cl)nc(Cl)c3)cc(C(C)C)c12` the mean average precision was active: 0.555.
`CC(=O)c1ccc(S(=O)(=O)NC(=O)NC2CCCCC2)cc1` was tested, and the mean average precision was active: 0.605.
For `c1cc(-c2cnn3cc(-c4ccc(N5CCNCC5)cc4)cnc23)c2cccnc2c1`, the mean average precision was active: 1.
With `C=CC(=O)Nc1cccc(Nc2nc(Nc3ccc(OCCOC)cc3)ncc2F)c1` the mean average precision was active: 1.
For `COCCOC(=O)C1=C(C)NC(C)=C(C(=O)OC(C)C)C1c1cccc([N+](=O)[O-])c1` (configuration not stated), the mean average precision was active: 0.782.
For `O=c1n(CCCN2CCN(c3cccc(Cl)c3)CC2)nc2ccccn12`, the mean average precision was inactive: 0.0843.
For `CN1C(=O)N(c2cc(Cl)cc(Cl)c2)C(=O)[C@]12CN(Cc1cc(C(=O)O)cs1)C[C@H]2c1ccc(C#N)cc1`, the mean average precision was inactive: 0.154.
For `C=C(NC(=O)C(=C)NC(=O)c1csc(C2=NC3c4csc(n4)C4NC(=O)c5csc(n5)C(C(C)(O)C(C)O)NC(=O)C5CSC(=N5)C(=CC)NC(=O)C(C(C)O)NC(=O)c5csc(n5)C3(CC2)NC(=O)C(C)NC(=O)C(=C)NC(=O)C(C)NC(=O)C(C(C)CC)NC2C=Cc3c(C(C)O)cc(nc3C2O)C(=O)OC4C)n1)C(N)=O` (configuration not stated), the mean average precision was active: 1.
In the case of `O=C1CCc2ccc(OCCCCN3CCN(c4cccc(Cl)c4Cl)CC3)cc2N1`, the mean average precision is reported as active: 0.952.
With `CCCC[C@@H](NC(=O)[C@@H](Cc1cn(C(=O)OC)c2ccccc12)NC(=O)[C@H](CC(C)(C)C)NC(=O)N1[C@H](C)CCC[C@@H]1C)C(=O)O` the mean average precision was inactive: 0.13.
